Over roughly 33,000 sequences, “E-score (-0.5 to 0.5)” has its median near -0.053; the highest 2% begin near 0.37. This is one part of the list.
target: Hap1 (UniProt P0CE41); assay: PBM E-score (8-mer binding enrichment) (E-score (-0.5 to 0.5)); higher = stronger / more preferred TF binding; most listed sequences are background and not binding sites; conditions: protein concentration: 200 nM; construct: GST-DNA-binding domain
In short: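 GST-tagged yeast TFs (full-length or DNA-binding domain) were made by PURExpress in vitro transcription/translation and applied at about 100-200 nM to universal all-10-mer Agilent arrays. The arrays were made double-stranded by primer extension, on fresh or once-stripped slides. Bound protein was detected with fluorescent anti-GST, and scans were normalised with masliner. Each ungapped eight-base word, pooled with its reverse complement, received an E-score (modified Wilcoxon-Mann-Whitney statistic) from the Universal PBM Analysis Suite.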

Chain of UniProt P0CE41 (P0CE41 whole entry, the tested form may be a part): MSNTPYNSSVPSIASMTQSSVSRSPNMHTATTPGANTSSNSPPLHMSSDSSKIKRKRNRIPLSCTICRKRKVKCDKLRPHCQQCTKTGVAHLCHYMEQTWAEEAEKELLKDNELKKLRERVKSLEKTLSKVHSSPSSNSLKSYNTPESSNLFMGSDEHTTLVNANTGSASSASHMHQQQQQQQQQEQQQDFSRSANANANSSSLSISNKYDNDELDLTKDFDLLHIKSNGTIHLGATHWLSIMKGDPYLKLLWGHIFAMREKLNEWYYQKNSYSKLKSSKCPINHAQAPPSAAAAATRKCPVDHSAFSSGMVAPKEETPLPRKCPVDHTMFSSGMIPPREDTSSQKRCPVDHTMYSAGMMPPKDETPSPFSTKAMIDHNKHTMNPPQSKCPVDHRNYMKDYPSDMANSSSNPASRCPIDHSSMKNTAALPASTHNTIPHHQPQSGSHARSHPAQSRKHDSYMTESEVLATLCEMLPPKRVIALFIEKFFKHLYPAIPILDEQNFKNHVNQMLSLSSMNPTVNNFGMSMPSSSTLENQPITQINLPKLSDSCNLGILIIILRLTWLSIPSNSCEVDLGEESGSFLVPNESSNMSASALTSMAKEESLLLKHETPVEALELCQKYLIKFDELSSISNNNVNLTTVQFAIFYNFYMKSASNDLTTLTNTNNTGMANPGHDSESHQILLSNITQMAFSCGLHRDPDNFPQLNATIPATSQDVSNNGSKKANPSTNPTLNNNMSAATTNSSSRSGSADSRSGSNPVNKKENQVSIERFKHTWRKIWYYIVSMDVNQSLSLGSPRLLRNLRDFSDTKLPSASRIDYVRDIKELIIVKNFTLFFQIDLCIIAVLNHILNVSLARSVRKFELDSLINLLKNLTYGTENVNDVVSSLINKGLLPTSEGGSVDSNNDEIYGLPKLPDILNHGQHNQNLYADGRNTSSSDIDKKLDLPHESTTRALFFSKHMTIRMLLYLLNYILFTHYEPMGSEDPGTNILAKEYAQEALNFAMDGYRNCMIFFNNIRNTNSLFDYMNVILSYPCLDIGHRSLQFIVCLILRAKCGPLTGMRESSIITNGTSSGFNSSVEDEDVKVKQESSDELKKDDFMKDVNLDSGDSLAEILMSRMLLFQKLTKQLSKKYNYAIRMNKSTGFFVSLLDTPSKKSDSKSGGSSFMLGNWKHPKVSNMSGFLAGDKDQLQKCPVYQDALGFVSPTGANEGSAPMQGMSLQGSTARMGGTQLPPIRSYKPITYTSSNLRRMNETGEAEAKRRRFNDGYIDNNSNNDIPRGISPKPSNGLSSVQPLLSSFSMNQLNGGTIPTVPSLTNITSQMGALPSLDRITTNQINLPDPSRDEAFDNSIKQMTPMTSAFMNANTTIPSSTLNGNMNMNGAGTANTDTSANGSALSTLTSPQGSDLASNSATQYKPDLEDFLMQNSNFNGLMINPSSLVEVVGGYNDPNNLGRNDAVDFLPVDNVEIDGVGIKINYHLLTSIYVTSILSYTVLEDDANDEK

Sequence | PBM E-score
CCGAACAC | 0.252
GTAGTCAA | -0.219
AAGTATGA | 0.00276
CGGGAACC | 0.2
AAGTGTTC | -0.00116
GTGTAACA | -0.162
TCGTAAGA | -0.13
ATTGCTAC | -0.0392
AAGAGAAT | 0.0433
AGTTAAAA | 0.116
GCCCCTAC | -0.0694
GGATAGCC | -0.0145
ACAAGGTA | -0.0805
CCTCGAAG | -0.123
ATAAAGTC | 0.00253
AGGTTATA | -0.0688
CCGTAGTA | 0.109
GGCTTCAA | -0.0187
ATACTGAT | 0.0437
GCTGAACA | -0.105
CAGGGTAC | -0.275
CAGCCGGC | 0.331

Sequence | PBM E-score
AACCCGAT | 0.375
GGGAGTGA | -0.0645
AGAAGGCT | -0.279
CCTGACCC | 0.1
TACGGTAA | 0.0382
CAGCGCTA | -0.125
CTAACCAA | -0.0485
GACCCCTC | -0.0953
GACCACAC | -0.197
GCGCGCGC | 0.298
GGCCCTAC | 0.0583
CTTTGTGA | -0.178
CCTTCTCA | -0.0508
AGCTTTGA | -0.0822
CGGAAGTC | 0.305
ACCCGGCC | 0.305
AAAGAGTA | -0.136
CCTGAAAG | -0.202
AGGCAACG | -0.00759
GATTGGTA | 0.0411
ACAATATG | 0.13
CCATAAAA | 0.0761

Sequence | PBM E-score
ACATCACC | 0.134
AACGCCTG | -0.00879
CACTTACG | 0.0631
CTTGAACC | -0.0694
AATATATT | 0.0617
TCACAGAA | -0.273
GACAGCCA | -0.149
AACGACGC | -0.171
ACTCTCCA | -0.172
ATCCCTTC | -0.2
CGCCCAAA | -0.057
CAACCCGC | 0.0375
GCCAGTGA | -0.171
CGCTGAAC | -0.149
AGCCGCCC | 0.146
CTATACTC | -0.0351
CTCGCGGC | 0.109
AATTCTTG | -0.198
AGTCGCAC | -0.219
AGTGAGTG | -0.12
CGATTCCC | 0.189
ACAAAATA | -0.116

Sequence | PBM E-score
CGTGTAGC | -0.195
CCGAACAG | 0.311
ACTCTAAC | -0.113
GATGAATC | 0.00529
CAACCCTA | -0.147
ATAGTCGC | 0.0221
CGTGGCTC | -0.204
ATGTGAGA | -0.197
ATTACTCG | -0.0133
ATACTGTG | -0.184
ATCATTAC | 0.0082
CCGCATTC | 0.026
ACCACTCA | -0.302
CCTCGCCC | 0.0415
AAGCCAGC | -0.172
CTTCTATC | 0.0609
CCGGCCTA | 0.288
CGCGGCCA | 0.142
GTAGCTTA | -0.0577
CATCCTCC | -0.00263
AGAACTTG | -0.211
AATGGCTG | -0.0579

Sequence | PBM E-score
CCGCCATC | 0.0194
TATCTACA | -0.0922
GAGGTAAC | 0.184
ACAAGAAC | 0.0025
GTTGATTA | -0.092
CAGCACAA | -0.014
ACGGGGCT | 0.209
CTAATCAG | -0.111
GGGTCAGA | -0.0904
CTCTACAA | -0.178
AGATACAA | 0.0255
CCAACTGC | 0.0731
ACAGCGGA | 0.147
AAGCGGGA | 0.0654
CACCGAGA | 0.259
AACCGCAC | 0.0423
CGCCCCAG | -0.0209
CCTTGATC | -0.101
ACATGAAG | -0.0999
CACAATGG | -0.0558
CATCATTA | 0.0391
